Test results from patent US11254722B2, “Recombinant proteins and uses thereof” (ACADEMIA SINICA, priority 2017, dated 2022).
Read-outs that look alike come from different tables or passages of the source.

T1: nrgECD (amino acids Ser2-Lys246 of neuregulin beta 1) (Homo sapiens, UniProt Q02297)
T1 construct: Ser2-Lys246 of neuregulin beta 1; purchased R&D Sciences or SinoBiologicals
T1 sequence (Q02297 2-246 isoform Q02297-6): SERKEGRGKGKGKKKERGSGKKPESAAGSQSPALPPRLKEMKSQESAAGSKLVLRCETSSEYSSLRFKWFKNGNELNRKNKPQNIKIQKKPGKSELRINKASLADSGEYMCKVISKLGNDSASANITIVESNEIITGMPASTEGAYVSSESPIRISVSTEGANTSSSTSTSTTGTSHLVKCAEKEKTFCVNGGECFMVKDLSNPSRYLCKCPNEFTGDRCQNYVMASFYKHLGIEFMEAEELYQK

T2: nrgEGF (amino acids Thr176-Lys246 of neuregulin-beta 1) (Homo sapiens, UniProt Q02297)
T2 construct: Thr176-Lys246 of neuregulin-beta 1; purchased R&D Sciences or SinoBiologicals
T2 sequence (Q02297 176-246 isoform Q02297-6): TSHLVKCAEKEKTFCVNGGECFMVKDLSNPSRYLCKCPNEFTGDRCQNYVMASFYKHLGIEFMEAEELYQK

T3: VEGF (Homo sapiens, UniProt P15692)
T3 construct: purchased R&D Systems
T3 sequence (P15692 27-191 isoform P15692-4): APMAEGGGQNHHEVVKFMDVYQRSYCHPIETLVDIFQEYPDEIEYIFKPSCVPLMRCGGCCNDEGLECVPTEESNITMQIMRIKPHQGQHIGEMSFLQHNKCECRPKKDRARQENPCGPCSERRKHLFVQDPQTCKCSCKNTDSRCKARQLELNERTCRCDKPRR


Key:
hep3B cells = experiment: hep3B proliferation assay; assay type: cell-based, human; conditions: Table 10
Description: (§1) For the proliferation assay, cells except for HUVEC were seeded at a density of 1,000 to 6,000 in 96 wells in an assay buffer of DMEM/F12 plus 0.2% BSA and 10 ug/ml transferrin. Chemical inhibitors were added after 16-20 hours after plating; IGF-1 or other growth factors or test chimeras in assay buffer were added at the time of plating or 16-20 hours after plating. 5,000 HUVEC ells were plated in poly-L-lysine coated 96 wells in M199 with 1%/FBS and HEPES. After 3 to 4 days of culture, growth was determined by incubating cells with Alamar blue for 4 to 6 hours and then the fluorescence (RFU) at 544/590 nm was read. For long term proliferation assays, cells were plated in the growth media with 5% or 10% FBS at densities of 500 to 10,000 cells per cm^2 growth area and grown for 7 to 21 days. Inhibitors and effectors were added 1-4 days after plating. Cells were exposed to cisplatin or gemcitabine for two days. Medium was renewed twice weekly. At completion, cells were fixed and then stained with Giemsa.
The human hepatoma cell line hep3B could be stimulated by many growth factors including IGF-1, IGF-2, HGF, bFGF, VEGF, and neuregulin.

[1] = biological target: T1, nrgECD (amino acids Ser2-Lys246 of neuregulin beta 1); experiment: Biacore binding to nrgECD; conditions: immobilized nrgECD
Description: (§2) Biacore binding was performed at David Myszka's laboratory at the University of Utah or at the Genomic Research Center at Academia Sinica. Surfaces of binding protein chimera were made via chemical immobilization on a CM4 chip using standard amine coupling chemistry. […] Excess surface carboxyl activated sites on all four flow cells was blocked using the doubly positively charged species ethylenediamine. Binding experiments (but not immobilizations) in HBS-P (10 mM HEPES pH 7.4, 150 mM NaCl, 0.05% P20), The HBS-P was supplemented with BSA at 0.2 mg/mL, or HBS-P was supplemented with 500 mM NaCl (650 mM NaCl, final concentration). Analytes were also reconstituted in the corresponding buffer. All experiments were performed at 25° C. 1/150 dilutions of phosphoric acid were used to regenerate IGFBP3-Fc surfaces and a sequence of 3 M MgCl2 followed by 5 M GuCl was used to regenerate surfaces immobilized with growth factor. Dissociation constants reported below used immobilized binding protein unless noted. Differences between binding constants may be expected between growth factor immobilization and chimera immobilization.
(§3) In this example, erbB4 domain 1 was attached to the N-terminus of the recombinant IGFBP3-Fc or the recombinant IGFBP3-v1v2-Fc.

[2] = biological target: T2, nrgEGF (amino acids Thr176-Lys246 of neuregulin-beta 1); experiment: Biacore binding to nrgEGF
Description: as §2, §3

cancer cells = experiment: In vitro proliferation of cancer cells stimulated by growth factors (Table 8); assay type: cell-based
Description: as §1
The BP3-fc construct inhibited the proliferation of cancer cells that had been stimulated by IGF-1, IGF-2, neuregulin, HGF, and bFGF.

VEGF = biological target: T3, VEGF; experiment: In vitro proliferation stimulated by VEGF (Table 8); assay type: cell-based
Description: as §1
The BP3-VEGF-trap-fc (including the IGFBP3 domains, the VEGFR1 domain 2 and VEGFR2 domain 3 (VEGF-trap (22)), and human immunoglobulin Fc region) broadened the binding to include VEGF-A, VEGF-B, and placental growth factor (PIGF). This BP3-VEGF-trap chimera could inhibit the proliferation stimulated by IGF-1, IGF-2, neuregulin, PDGF-BB, HGF, bFGF, VEGF-A, and PIGF (see, Table 8).

| Molecule | IC50 (hep3B cells; read-out: IC50, FBS-stimulated proliferation of hep3B cells) [nM] | IC50 (hep3B cells; read-out: IC50, HGF-stimulated proliferation of hep3B cells) [nM] | IC50 (hep3B cells; read-out: IC50, IGF1-stimulated proliferation of hep3B cells) [nM] | IC50 (hep3B cells; read-out: IC50, bFGF-stimulated proliferation of hep3B cells) [nM] | IC50 (hep3B cells; read-out: IC50, nrg-stimulated proliferation of hep3B cells) [nM] | Kd [1] [nM] | Kd nrgEGF [2] | inhibition of proliferation stimulated by bFGF (cancer cells) | inhibition of proliferation stimulated by VEGF (VEGF) |
| --- | --- | --- | --- | --- | --- | --- | --- | --- | --- |
| D3met34: SEQ ID NO: 29; chimera with a met domain (met is the HGF receptor) (protein) MSEVPVARVWLVLLLLTVQVGVTAG[here about 250 residues without letters]AAASGGGSGGGGSGGGGSGGDPIVYEIHPTKSFISTWWKEPLNIVSFLFCFASGGSTITGVGKNLNSVSVPRMVINVHEAGRNFTVACQHRSNSEIICCTTPSLQQLNLQLPLKTKAFFMLDGILSKYFDLIYVHNPVFKPFEKPVMISMGNENVLEIKGNDIDPEAVKGEVLKVGNKSCENIHLHSEAVLCTVPNDLLKLNSELNIEWKQAISSTVLGKVIVQPDQNFTGSGGGSGGGSTGVECPPCPAPPVAGPSVFLFPPKPKDQLMISRTPEVTCVVVDVSHEDPEVKFNWYVDGVEVHNAKTKPREEQYNSTYRVVSVLTVLHQDWLNGKEYKCKVSNKGLPSSIEKTISKAKGQPREPQVYTLPPSREEMTKNQVSLTCLVKGFYPSDIAVEWESNGQPENNYKTTPPVLDSDGSFFLYSKLTVDKSRWQQGNVFSCSVMHEGLHNHYTQKSLSLSPGK | 128 | 14 | 24 | 149 | 89 | – | – | – | – |
| IGFBP3-v1v2-Fc: IGFBP3-gly 3 linker-v1v2-Fc, SEQ ID NO: 21 (protein) MSEVPVARVWLVLLLLTVQVGVTAG[here about 250 residues without letters]APPAPGNASESEEDRSAGIYIFISDTGRPFVEMYSEIPEIIHMTEGRELVIPCRVTSPNITVTLKKFPLDTLIPDGKRIIWDSRKGFIISNATYKEIGLLTCEATVNGHLYKTNYLTHRQGYRIYDVVLSPSHGIELSVGEKLVLNCTARTELNVGIDFNWEYPSSKHQHKKLVNRDLKTQSGSEMKKFLSTLTIDGVTRSDQGLYTCAASSGLMTKKNSTFVRVHEKVECPPCPAPPVAGPSVFLFPPKPKDQLMISRTPEVTCVVVDVSHEDPEVKFNWYVDGVEVHNAKTKPREEQYNSTYRVVSVLTVLHQDWLNGKEYKCKVSNKGLPSSIEKTISKAKGQPREPQVYTLPPSREEMTKNQVSLTCLVKGFYPSDIAVEWESNGQPENNYKTTPPVLDSDGSFFLYSKLTVDKSRWQQGNVFSCSVMHEGLHNHYTQKSLSLSPGK | – | – | – | – | – | 0.18 | No binding | inh | inh |
